Out of some 310,000 compounds screened, about 14,000 (4.5%) showed an effect of 50% or more. Effects have a minus sign here. The list shows a part of the results.
Target: human ether-à-go-go-related gene (hERG) potassium channel (human, UniProt Q12809)
Assay: primary screen, population patch clamp on CHO cells stably expressing hERG
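Further: peak tail current of the secondary pulse compared with the same well before compound.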

human ether-à-go-go-related gene (hERG) potassium channel, sequence (Q12809 whole entry, looked up): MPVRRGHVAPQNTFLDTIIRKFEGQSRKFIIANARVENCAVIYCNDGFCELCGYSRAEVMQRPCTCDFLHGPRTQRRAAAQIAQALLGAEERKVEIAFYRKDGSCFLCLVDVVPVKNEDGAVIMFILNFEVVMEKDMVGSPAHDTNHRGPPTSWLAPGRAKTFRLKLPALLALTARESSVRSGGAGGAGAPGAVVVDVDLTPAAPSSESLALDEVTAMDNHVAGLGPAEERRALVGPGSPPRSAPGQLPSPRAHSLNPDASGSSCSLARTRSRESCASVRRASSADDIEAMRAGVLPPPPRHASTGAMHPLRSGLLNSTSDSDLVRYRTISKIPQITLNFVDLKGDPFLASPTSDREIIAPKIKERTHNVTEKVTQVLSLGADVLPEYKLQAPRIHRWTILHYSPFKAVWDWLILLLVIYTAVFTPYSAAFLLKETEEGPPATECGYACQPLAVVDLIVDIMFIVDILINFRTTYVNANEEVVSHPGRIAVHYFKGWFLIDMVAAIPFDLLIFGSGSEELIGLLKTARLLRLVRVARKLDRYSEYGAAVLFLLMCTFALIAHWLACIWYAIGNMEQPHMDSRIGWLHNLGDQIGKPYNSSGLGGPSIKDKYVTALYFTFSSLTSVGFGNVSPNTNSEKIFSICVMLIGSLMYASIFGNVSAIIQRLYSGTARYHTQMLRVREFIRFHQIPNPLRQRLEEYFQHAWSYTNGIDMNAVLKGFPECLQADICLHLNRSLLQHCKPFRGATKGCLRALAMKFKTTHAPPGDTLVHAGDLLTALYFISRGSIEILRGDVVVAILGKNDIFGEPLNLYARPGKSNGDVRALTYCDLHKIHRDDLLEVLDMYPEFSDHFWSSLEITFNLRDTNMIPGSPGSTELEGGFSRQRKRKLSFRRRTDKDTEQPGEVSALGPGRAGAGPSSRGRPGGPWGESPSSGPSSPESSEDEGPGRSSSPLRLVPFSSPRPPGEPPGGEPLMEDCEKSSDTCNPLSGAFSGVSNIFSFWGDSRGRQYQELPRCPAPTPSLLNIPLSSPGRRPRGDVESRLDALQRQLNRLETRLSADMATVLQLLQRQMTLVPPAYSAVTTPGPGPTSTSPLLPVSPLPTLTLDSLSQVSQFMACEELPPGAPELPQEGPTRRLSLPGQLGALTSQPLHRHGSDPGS

Row | Structure (SMILES) | hERG current change (%, negative = inhibition) at 10uM [%]
1 | CCOc1ccc(-n2c(SCC(N)=O)nnc2-c2cccnc2)cc1 | -5.57
2 | Cc1cc(=O)[nH]c(SCC(=O)NCc2ccc3c(c2)OCO3)n1 | 22.3
3 | COc1cc(S(=O)(=O)NC2CCCCC2)c(C)cc1C | 4.88
4 | COc1ccc2c(c1)c(C(=O)O)c(C)n2-c1ccccc1 | 2.91
5 | O=C1c2ccccc2S(=O)(=O)N1Cc1c(F)cccc1Cl | -6.24
6 | O=C(Nc1ncnc2sc3c(c12)CCCCC3)c1ccc(F)cc1 | 10.7
7 | COc1ccc(C(=O)OCCN2CCOCC2)cc1.Cl | -4.71
8 | COc1ccc(-c2cc(C(F)(F)F)nc(N3CCCCCC3)n2)cc1 | 2.13
9 | O=c1[nH]c2ccsc2c(=O)n1-c1ccc(F)cc1 | 12.4
10 | CC(C)c1ccc(N(CC(=O)NCc2ccc(F)cc2)C(=O)c2csnn2)cc1 | -32.5
11 | CCOc1ccc(/C=N/NC(=O)C(OC)c2ccccc2)cc1 (centres unmarked) | -0.107
12 | Cc1ccc(-c2cc(C(=O)Nc3nccs3)c3ccccc3n2)o1 | -0.32
13 | CCc1cc(=O)oc2cc(C)cc(OCC(=O)N3CCC(C(=O)NC(C)C)(c4ccccc4)CC3)c12 | -43.6
14 | COc1ccc(-c2cn(CC3CCCCC3)nn2)cc1 | 15.3
15 | COCCNc1ccc([N+](=O)[O-])cc1C(=O)NC1CCCc2ccccc21 (centres unmarked) | -40.8
16 | CC(C)(C)C(=O)/C=C/Nc1ccccc1O | 4.35
17 | O=C(NC(=S)N1CCCCCC1)C1CC1 | 12.7
18 | O=C(CSc1ccccn1)N/N=C/c1ccccc1[N+](=O)[O-] | -27.6
19 | CC(=O)N1CCN(S(=O)(=O)c2cccc(C(=O)NNC(=O)COc3ccc(F)cc3)c2)CC1 | -1.69
20 | Cc1c(N=Cc2ccc(Cl)o2)c(=O)n(-c2ccccc2)n1C | -1.96
21 | CCOc1ccc(-c2n[nH]c(C)c2Oc2ccccc2OC)c(O)c1 | 14
22 | O=C(O)c1ccc(NS(=O)(=O)c2cccc(C(=O)Nc3ccc([N+](=O)[O-])cc3)c2)cc1 | 18.8

Row | Structure (SMILES) | hERG current change (%, negative = inhibition) at 10uM [%]
23 | COc1cccc(C(=O)c2c[nH]c(C(=O)NCCCN(C)C)c2)c1 | -4.75
24 | O=C(CNCC1CCCCC1)Nc1cccc(S(=O)(=O)N2CCOCC2)c1 | 21.7
25 | CCN(CC(=O)Nc1c(F)cccc1F)C(=O)c1ccc(S(=O)(=O)N2CCCCC2)cc1 | -6.93
26 | COCCn1c(SCC(=O)Nc2cccc(C)n2)nnc1-c1ccco1 | -11.5
27 | Cc1nnc2ccc(N3CCCC3)nn12 | 6.22
28 | COc1ccc(NC(=O)CSc2nc3scc(C)c3c(=O)[nH]2)cc1 | 14
29 | Cc1cccc(NC(=O)[C@@H]2CCCN2C(=O)OC(C)(C)C)c1C | 14
30 | O=C(NC1CCCC1)c1ccccc1-c1ccccc1 | 12.1
31 | Cc1cc(OC(C)C(=O)Nc2cccnc2)ccc1Cl (centres unmarked) | 2.05
32 | CN(CC(=O)N1CCN(c2cccc(Cl)c2)CC1)S(=O)(=O)c1cccs1 | -32.9
33 | Cc1cccc2c1N1C(=O)c3c(C(=O)O)cccc3C1CC2C (centres unmarked) | -6.35
34 | COc1ccc(/C=N/NC2=NS(=O)(=O)c3ccccc32)cc1 | 12.8
35 | COc1ccc(/C(C)=N/NC(=O)CNC(=O)COc2ccccc2)c(OC)c1 | 16.1
36 | COc1ccccc1NC(=O)CN(C)S(=O)(=O)c1cc(C)ccc1OC | -12.9
37 | Cl.OCCNCc1cccc(OCc2ccc(Cl)cc2)c1 | -12.9
38 | CCCC(C)C1(CC)C(=O)NC(=Nc2ccccc2)NC1=O (centres unmarked) | 2.53
39 | COc1ccc(OC)c(CN2CCN(C(=O)CNC(=O)c3cc(C)cc(C)c3)CC2)c1 | -42.7
40 | Cc1ccc(S(=O)(=O)N(C)C)cc1NC(=S)N1CCCCC1CO (centres unmarked) | 11.6
41 | CCCN(C(=O)Cc1c(C(=O)O)n(C)c2ccccc12)c1cccc(C)c1 | 19.8
42 | Cc1ccc(NC(=O)CC(C)CC(=O)NCc2ccccc2)cc1Cl (centres unmarked) | 9.46
43 | Cc1csc(NC(=O)c2cc(=O)[nH]c3ccc(S(=O)(=O)N4CCOCC4)cc23)n1 | 25.1
44 | O=C(Nc1ccnn1C1CCN(C/C=C/c2ccccc2)CC1)c1ccccc1 | -73.7

— PMC4336329 (PLoS ONE, 2015)
